Measured values from PubChem BioAssay AID1963576 (National Center for Advancing Translational Sciences (NCATS), 2024).
The whole screen tested about 46,000 compounds, of which about 60 (0.1%) were called active. Not shown: some 3% with an inconclusive outcome. Calls come from the whole dose curve; as a rule, active = well fitted inhibition curve with a large enough effect; inconclusive = small, poorly fitted or top-dose-only effect; inactive = no such curve, though single readings can be large or run the other way. This is one part of the list.

Assay: Primary qHTS assay for Inhibitors of ovarian cancer metastasis using an organotypic tumor microenvironment (TME) model.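 For activity change, negative = inhibition: plate controls were DMSO wells for no effect and tomatine positive control wells for full effect.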 Note: nearly all actives have a fitted effect of over 65% in size.
Settings: SKOV3ip1-GFP adhesion/invasion on 3D omental model, fluorescence; series mostly up to 45.8 µM; activity change, negative = inhibition: at the top concentration
How it was run: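 Adhesion/invasion was scored as fixed GFP-labeled SKOV3ip1 cell counts (488/509 nm), normalized to DMSO and tomatine controls. Cancer cells in serum-free medium, with four compound doses (0.36-46 umol/L), sat 2 hr at RT then 16 hr at 37 C on a 48 hr fibroblast/mesothelial/ECM culture.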

Activity change, negative = inhibition, inactive:
COCc1cc(C)nc2c1C(=O)NC(c1ccc(F)cc1)N2Cc1ccccc1 (centres undefined) 0.492%
COc1ccc(-c2nnc(SCC(=O)NCCC(C)C)nc2-c2ccc(OC)c(OC)c2)cc1OC 0.837%
CCOC(=O)c1c(C)oc2nc(C)nc(NCC3CCN(Cc4ccc(C)cc4)CC3)c12 1.79%
Cc1ccccc1CSc1cn(CC(=O)N2CCCCC2)c2ccccc12 -8.2%
N#Cc1c(C(F)(F)F)cc(-c2cccs2)nc1SCc1ccc(F)cc1 -0.735%
CC1=C(C(=O)NCc2cccc(F)c2)C2(CCCCC2)OC1=O -11%
CC(C)(C)c1ccc(C(=O)NCCc2csc(-c3ccc(Cl)cc3)n2)cc1 1.64%
Cc1ccc(NC(=O)CCS(=O)(=O)c2ccc(Br)s2)c(Br)c1 2.26%
CCOc1ccc(CCNC(=O)c2oc(=O)c3ccccc3c2-c2ccc(C)cc2)cc1OCC -19.1%
Cc1nn(C)cc1CN(C)C(=O)c1cc(-c2ccccc2)nc2ccc(Br)cc12 -11.6%
CCOC(=O)c1ccc(CN(Cc2ccc(F)cc2)S(=O)(=O)c2ccc(F)c(C(=O)Nc3c(C)cccc3C)c2)cc1 -14%
COc1ccc(C2NC(=O)N(C)C3=C2C(=O)N(c2ccc(C(=O)O)cc2)C3)cc1 (centres undefined) 22.6%
COc1ccc(OC)c(C2CC(=O)Nc3c2c(=O)[nH]c2ncnn32)c1 (centres undefined) 6.85%
CCc1ccccc1NS(=O)(=O)c1ccc2[nH]cc(C(=O)N(CC)Cc3ccccc3)c(=O)c2c1 2.58%
CCCc1ccc(OCC(=O)Nc2sc(C(=O)OCC)c(C)c2C(=O)OCC)cc1 -7.68%
CSc1ncc(C(=O)NCc2ccccc2F)c(-c2ccccc2)n1 0.969%
Cc1ccc2c(CNCc3ccc(C)o3)c(C(=O)O)n(Cc3ccccc3C)c2c1 -2.66%
COc1ccc(S(=O)(=O)Nc2c(C)nc3nc[nH]n3c2=O)cc1 -2.6%
CCOc1ccc(NC(=O)Cn2c(=O)n(CCCCCC(=O)NCc3ccccc3)c(=O)c3sccc32)cc1 6.21%
COc1ccc(CNC(=O)c2cc3cc(OC)ccc3oc2=O)cc1 6.99%
Cc1cc(C)c2c(CC(=O)Nc3ccc(S(=O)(=O)Nc4nc(C)cc(C)n4)cc3)coc2c1 -1.64%
CC(=O)N1CCCc2cc(S(=O)(=O)N3CCCC(C(=O)N4CCN(c5ccccc5)CC4)C3)ccc21 (centres undefined) 3.96%
Cc1cc(S(=O)(=O)C(CNC(=O)c2ccc(F)c(F)c2)c2cccs2)ccc1F (centres undefined) -24.4%
Cc1ccc(NC(=O)C(=O)NCC(c2cccnc2)N2CCN(Cc3ccccc3)CC2)cc1F (centres undefined) -16.3%
Cc1cccc(/C=C/c2onc(C)c2S(=O)(=O)N2CCC(C(=O)N3CCCCC3)CC2)c1 4.45%
CCCCn1cnc2cc(NCc3ccccc3Cl)ccc21 -15.5%
Cc1ccc(-n2ncc3c(Nc4cccc(C(=O)O)c4)ncnc32)cc1 -7.46%
COc1ccc2c(c1)cc1c(=O)n(CC(=O)NC(C)CCc3ccccc3)nc(C)n12 (centres undefined) 5.55%
CC[C@]1(O)C[C@H]2CN(CCC3=c4ccccc4=N[C]3[C@@](C(=O)OC)(c3cc4c(cc3OC)N(C)[C@H]3[C@@](O)(C(N)=O)[C@H](O)[C@]5(CC)C=CCN6CC[C@]43[C@@H]65)C2)C1 0.091%
CCOCCCNC(=O)c1ccc(-n2c(-c3ccccc3)cc3c2CCC(C)C3)cc1 (centres undefined) -1.61%
CSc1cccc(NC(=O)Nc2ccccc2OCc2cc(=O)n3cc(C)ccc3n2)c1 8.9%
COc1ccc(-c2csc3ncnc(Nc4cccc(OC)c4)c23)cc1 -0.336%
Cc1oc(-c2ccc(C(=O)NCc3ccccc3)cc2)nc1CN1CCc2ccccc21 0.945%
O=C(Cc1cccs1)NC1CC(=O)N(c2ccc(F)cc2)C1 (centres undefined) 0.0491%
COc1ccc(NC(=O)CCNS(=O)(=O)c2ccc3c(c2)CCCC(=O)N3)cc1Cl 11.5%
O=C(NCc1ccc(Cl)cc1)NCc1noc2ccccc12 4.16%
Cc1ccc2c(c1)C(c1ccc(F)cc1)N(C(=O)c1ccc(S(=O)(=O)N3CCCCC3)cc1)CC(=O)N2 (centres undefined) -4.83%
CCc1ccc(S(=O)(=O)Nc2ccc3c(c2)n(C)c(=O)c(=O)n3C)cc1 -1.25%
CCC(=O)N1CCc2cc(Br)cc(S(=O)(=O)CCC(=O)N3CCN(c4cccc(C)c4)C(C)C3)c21 (centres undefined) -21.3%
Cc1ccc(S(=O)(=O)c2nnn(-c3ccc(F)c(Cl)c3)c2N)cc1 -2.76%
Cc1cc(OCC(=O)Nc2cc(-c3nc4ncccc4o3)ccc2C)ccc1Cl 13.1%
COC(=O)c1ccccc1NC(=O)C1=CC(c2cccs2)=NS(=O)(=O)N1C 1.47%
COc1ccc(CCNC(=O)c2nc(-c3ccc(Cl)cc3)n3c2CCCCC3)c(OC)c1 5.8%
Cc1cccc(C)c1Nc1c(-c2ccccn2)nc2c(C)cccn12 -5.47%
CCOc1ccc2nc(N3CCCC(C(=O)NCCc4ccc(OCC)c(OCC)c4)C3)sc2c1 (centres undefined) 1.11%

outcome, inactive:
Cc1ccc(CNCc2ccccc2Cl)s1
CCOC(=O)C(C)Sc1ccc2nnc(CCNS(=O)(=O)c3ccc(C)cc3)n2n1 (centres undefined)
CC1Cc2ccccc2N1C(=O)CSc1nc2ccc(NC(=O)COc3ccccc3)cc2s1 (centres undefined)
O=C(Nc1cccc(C(F)(F)F)c1)c1cnn(-c2cccc(F)c2)c1C1CCNCC1
COc1cccc(-c2nc(CS(=O)(=O)CC(=O)N3CCN(c4cc(C)ccc4C)CC3)c(C)o2)c1
CCc1ccc(C2CC(=O)c3c([nH]c(C(=O)OC4CCCC4)c3C)C2)cc1 (centres undefined)
Cc1ccc(C)c(N2CCN(S(=O)(=O)c3ccc4c(c3)C(C(C)C)C(=O)N4)CC2)c1 (centres undefined)
Cc1ccc(S(=O)(=O)n2nc(-c3ccc(Cl)cc3)nc2NCc2ccc(F)cc2)cc1
COc1ccc(-c2[nH]c(-c3ccc(Cl)cc3)nc2SCC(=O)NCC2CCCO2)cc1 (centres undefined)
CCCSCCCNC(=O)C1CCN(c2nc3ccccc3nc2C(F)(F)F)CC1
O=S(=O)(NCCc1csc2nc(-c3ccccc3)nn12)c1cc(F)ccc1F
COc1ccc(-c2nc3ccccc3s2)cc1NC(=O)c1ccccc1F
COc1ccc(C(=O)Nc2ccc3nc(SCC(=O)N4CCc5ccccc54)sc3c2)cc1
COc1ccc(-n2nc3cc(C)c(NC(=O)c4ccc(-c5ccc(Cl)cc5)o4)cc3n2)cc1
